From PMC4336329 (PLoS ONE, 2015)
Out of some 310,000 compounds screened, about 14,000 (4.5%) showed an effect of 50% or more. Effects have a minus sign here. This is one part of the list.

These compounds were tested against human ether-à-go-go-related gene (hERG) potassium channel (human, UniProt Q12809) (assay: primary screen, population patch clamp on CHO cells stably expressing hERG).
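Further: peak tail current of the secondary pulse compared with the same well before compound.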

human ether-à-go-go-related gene (hERG) potassium channel, sequence (Q12809 whole entry, looked up): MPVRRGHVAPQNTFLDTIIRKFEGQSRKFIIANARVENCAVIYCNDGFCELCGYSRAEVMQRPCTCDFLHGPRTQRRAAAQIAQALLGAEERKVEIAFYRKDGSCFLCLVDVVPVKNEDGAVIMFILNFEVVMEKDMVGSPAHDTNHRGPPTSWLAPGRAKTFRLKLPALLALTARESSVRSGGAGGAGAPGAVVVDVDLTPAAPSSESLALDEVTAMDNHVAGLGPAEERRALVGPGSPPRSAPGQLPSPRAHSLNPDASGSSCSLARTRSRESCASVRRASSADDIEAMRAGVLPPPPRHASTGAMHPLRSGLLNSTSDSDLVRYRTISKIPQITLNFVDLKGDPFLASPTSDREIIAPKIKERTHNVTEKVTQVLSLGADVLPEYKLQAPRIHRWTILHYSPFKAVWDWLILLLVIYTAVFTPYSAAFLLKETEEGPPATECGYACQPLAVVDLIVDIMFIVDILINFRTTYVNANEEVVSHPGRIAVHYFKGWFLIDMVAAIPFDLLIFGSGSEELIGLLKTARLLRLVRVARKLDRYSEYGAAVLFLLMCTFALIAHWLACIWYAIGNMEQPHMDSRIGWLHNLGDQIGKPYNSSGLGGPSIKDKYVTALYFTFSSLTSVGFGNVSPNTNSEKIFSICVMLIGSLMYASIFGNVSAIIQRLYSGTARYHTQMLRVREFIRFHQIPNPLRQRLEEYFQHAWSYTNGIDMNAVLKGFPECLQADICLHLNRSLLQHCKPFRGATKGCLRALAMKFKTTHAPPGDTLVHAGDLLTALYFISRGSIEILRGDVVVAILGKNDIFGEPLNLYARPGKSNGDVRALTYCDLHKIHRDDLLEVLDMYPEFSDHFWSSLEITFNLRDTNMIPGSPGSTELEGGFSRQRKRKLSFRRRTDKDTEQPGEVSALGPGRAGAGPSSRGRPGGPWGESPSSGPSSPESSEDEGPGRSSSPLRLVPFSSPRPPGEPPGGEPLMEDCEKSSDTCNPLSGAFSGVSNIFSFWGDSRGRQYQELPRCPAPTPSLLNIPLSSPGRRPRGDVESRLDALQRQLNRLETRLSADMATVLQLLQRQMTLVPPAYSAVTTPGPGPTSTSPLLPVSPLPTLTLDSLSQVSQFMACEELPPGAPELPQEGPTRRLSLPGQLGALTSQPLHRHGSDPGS

| Compound | hERG current change (%, negative = inhibition) at 10uM [%] |
| --- | --- |
| CCCCNC(=S)NNC(=O)c1csc(C)c1C | 8.49 |
| COc1ccccc1N(CC(O)Cn1c(C)nc2ccccc21)S(=O)(=O)c1ccccc1 (centres unmarked) | -5.88 |
| O=C(Nc1ccc(C(F)(F)F)cc1)C1CCN(c2cnccn2)CC1 | -12.5 |
| Cc1ccc(C)c(N2CCN(C(=O)c3ccc(N4CCOCC4)c([N+](=O)[O-])c3)CC2)c1 | -21.2 |
| O=C(CN(Cc1ccccc1)C(=O)CNS(=O)(=O)c1ccccc1)NCc1ccco1 | -0.255 |
| O=C(NCCCl)NNc1c(Cl)cc(Cl)cc1Cl | 10.3 |
| O=C(CS(=O)(=O)Nc1ccc(F)cc1Cl)Nc1ccc(F)cc1Cl | 4.64 |
| Nc1c(C(=O)NCc2ccco2)c2nc3ccccc3nc2n1Cc1ccccc1 | 7.69 |
| N#Cc1ccc(C(CC(=O)O)N2Cc3ccccc3C2=O)cc1 (centres unmarked) | 0.913 |
| COCCNC(=O)c1ccc(NC(=O)C2(c3ccccc3)CCCC2)cc1 | -8.48 |
| CCN(CC(=O)Nc1cc(Cl)ccc1C)C(=O)CCOc1ccc(C)cc1 | -8.25 |
| COC(=O)c1ccc(N2CCOCC2)c(F)c1 | 9.09 |
| COCc1cc(C)nc(OCC(=O)N/N=C/c2ccccc2)c1C#N | -42.3 |
| CC1(NC(=O)C2CCCCC2)CCS(=O)(=O)C1 (centres unmarked) | 21.6 |
| COc1ccccc1CC(=O)N(CCC#N)CCC#N | 5.52 |
| O=C(CSc1ccc(-c2ccco2)nn1)N1CCCCC1 | 12.9 |
| Clc1ccc(Cc2nnc(-c3cccs3)o2)cc1 | -17.9 |
| CC1CCCCN1CC(=O)NC(=O)NCc1ccccc1 (centres unmarked) | 16.8 |
| COc1ccc2cc(S(=O)(=O)Nc3ccccn3)ccc2c1 | 9.87 |
| COc1ccc(Nc2nnc(Cc3ccccc3)c(=O)[nH]2)c(OC)c1 | 3.85 |
| Cc1cc(C(=O)Nc2cccc(C)c2C)c2ccccc2n1 | 10.2 |
| Cc1cccc(NC(=O)c2n[nH]c([N+](=O)[O-])c2Br)c1C | 2.18 |

| Compound | hERG current change (%, negative = inhibition) at 10uM [%] |
| --- | --- |
| O=C(c1ccco1)N1CCc2[nH]nc(-c3ccccc3)c2C1 | -1.08 |
| C=CCC1S/C(=N/N=C/c2cccs2)NC1=O (centres unmarked) | 15.3 |
| COCCCn1c(SCC(=O)NC2CCCCC2)nnc1-c1ccco1 | -3.26 |
| Cc1ccc(C(=O)/C=C/c2c[nH]c3ccccc23)cc1 | -3.22 |
| O=C(NCc1ccc(Cl)cc1)c1cccc2c1C(=O)N(CC1CCCO1)C2 (centres unmarked) | -70.8 |
| O=C(Nc1ccccc1)C1=C[C@H](c2ccc3c(c2)OCO3)C[C@H](OCc2ccc(CO)cc2)O1 | -4.12 |
| O=C(C1CCN(S(=O)(=O)c2cccc3nsnc23)CC1)N1CCCCC1 | 2.03 |
| CC(C)(C)c1ccc(C(=O)NNC(=O)Cc2ccccc2)cc1 | 18.2 |
| CS(=O)(=O)Nc1ccc(C(=O)N2CCCC2)cc1 | -7.75 |
| N/N=C/C(=N\Nc1ccc(Cl)cc1)C(=O)c1ccncc1 | 22.3 |
| COc1ccc(Cl)cc1NC(=S)NCc1ccc(S(N)(=O)=O)cc1 | 2 |
| Cc1ccccc1OCCC(=O)Nc1ccc(F)c(Cl)c1 | -9.09 |
| Cc1cc2nnc(SCC(=O)NCc3cccs3)n2c2ccccc12 | -22.3 |
| CC(C)(C)C(=O)Nc1sc(-c2ccccc2)cc1C(=O)O | 28.3 |
| O=C(Nc1ccc(-c2nc3ccccc3o2)cc1)c1ccc(N2CCOCC2)c([N+](=O)[O-])c1 | -4.46 |
| Cc1ccc(CNC(=O)c2cc(S(=O)(=O)N3CCCC3)cn2C)cc1 | 0.308 |
| Cc1ccc(S(=O)(=O)NCC(c2ccc3c(c2)OCO3)N2CCOCC2)cc1 (centres unmarked) | -8.63 |
| COc1ccccc1CN(C)c1nnnn1-c1ccccc1 | -11 |
| COc1ccc(C(=O)NC(NC(=O)c2ccc(OC)c(OC)c2)c2ccccc2F)cc1OC | 7.59 |
| O=C(NCc1ccc(Cl)cc1)c1ccc(S(=O)(=O)N2CCCCC2)cc1 | 5.33 |
| CC(=O)OC1C2CCCC1C(N1CCCC1)CC2.Cl (centres unmarked) | -5.54 |
| CC(=O)Oc1ccc(C(=O)Nc2ccccc2C(=O)Nc2cccc(C(=O)O)c2)cc1 | 13 |
